Data taken from PubChem BioAssay AID1345083 (National Center for Advancing Translational Sciences (NCATS), 2018).
In all, about 94,000 compounds went through this assay and about 6,200 (6.6%) were called active. Inconclusive results, whose numbers are uncertain, are shown with a selection of clear calls. Calls follow the shape of the dose curve; as a rule, active = well fitted inhibition curve with a large enough effect; inconclusive = small, poorly fitted or top-dose-only effect; inactive = flat fitted curve, though single readings scatter. Potencies beside an inconclusive call are fits to weak or partial responses and may not hold up.
% is scaled to controls: 0 for no effect and ±100 for the full control effect; potency is read from the fitted curve at half-maximal effect; tags tell the direction and shape of the fitted curve.

Assay: Cytotoxic Profiling in HEK 293 Cell Line of Diverse Libraries Using Quantitative High-Throughput Screening; also: nearly all actives have a fitted effect of over 60% in size
Conditions: HEK 293 viability, ATP luminescence (CellTiter-Glo), 48-72 h; activity change, negative = cytotoxicity: at 115 µM (top of the series) unless noted; series mostly up to 115 µM
Procedure, shortened: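 Read-out: CellTiter-Glo ATP luminescence. Cells: HEK 293, 250 cells/well. Exposure: 48 or 72 hr, 37 degree Celsius.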
With `COC(=O)N1CCCC1C(=O)N1CCC(N2Cc3ccccc3C2=O)CC1` (stereo not drawn) the “activity change, negative = cytotoxicity” value was inactive: -6.75%. In the case of `COc1ccc(-c2cc(CC3(NCc4ccc(C)o4)COC3)no2)cc1`, the Potency is reported as inconclusive: 79.4 µM [inhibitor, partial curve, poor fit]. In the case of `CNC(=O)[C@@H]1[C@@H](OC(N)=O)C(=O)N(C)C12CCN(C(=O)c1ccccc1OC(F)(F)F)CC2`, the “activity change, negative = cytotoxicity” value is reported as inactive: -24.8%. For `O=C1NCCCCCN(C(=O)CCCc2ccccc2)[C@H]2CCCC[C@@H]12`, the “activity change, negative = cytotoxicity” value was inactive: -28%. In the case of `Cc1noc(-c2ccc(OC3CN(C(=O)c4ccoc4)C3)cc2)n1`, the “activity change, negative = cytotoxicity” value is reported as inactive: -11.5%. For `Cc1cc(C)n(CCCN(C)Cc2cc3n(n2)CCNC3)n1`, the “activity change, negative = cytotoxicity” value was inactive: -2.17%. In the case of `CCN1CCC2(CC1)Cc1ccccc1CN(S(=O)(=O)c1ccccc1)C2`, the “activity change, negative = cytotoxicity” value is reported as inactive: -23.7%. In the case of `CN(Cc1ccccc1)Cc1nc2c(n1Cc1ccccc1)C(=O)N(Cc1ccccc1F)CCN2`, the Potency is reported as active: 39.8 µM. With `OCC1(CCCc2ccccc2)CCN(Cc2ccc(-n3cccn3)cc2)CC1` the Potency was inconclusive: 50.1 µM [inhibitor, partial curve, poor fit]. With `O=C(CC1=C2CCCCC2N(Cc2ccccc2)C1=O)NCCN1CCCC1` (stereo not drawn) the “outcome” value was “inactive”. With `O=C(NCc1ccco1)C1c2ccccc2C(=O)N(Cc2ccccc2)C12CCCC2` (stereo not drawn) the Potency was inconclusive: 56.2 µM [inhibitor, partial curve, poor fit]. In the case of `COc1ccc(-c2cnc([C@@H]3COCCN3Cc3ccccc3)[nH]2)cc1`, the Potency is reported as inconclusive: 112 µM [inhibitor, partial curve]. For `Cc1oc(C(O)c2ccccc2)nc1C(=O)Nc1ccc2c(c1)CNC2=O` (stereo not drawn), the Potency was inconclusive: 100 µM [inhibitor, partial curve, poor fit]. With `Cc1ccc(NC(=O)CCC2CCN(C(=O)c3ccccc3)CC2)cc1F` the Potency was active: 28.2 µM. In the case of `C[C@H](C(=O)N1Cc2ccccc2CC2(CCN(CC3CCNCC3)CC2)C1)c1ccccc1`, the Potency is reported as inconclusive: 20 µM [inhibitor, full curve, poor fit]. With `CC(C)CNC(=O)c1ccc2nc(-c3ccnc(Cl)c3)oc2c1` the “outcome” value was “inactive”. With `CCOc1ccc(NC(=O)CCC2CCCN(S(=O)(=O)c3cccc(F)c3)C2)cc1` (stereo not drawn) the Potency was active: 35.5 µM. In the case of `COc1cccc(-c2cc(C(=O)NCCOc3ccccc3)[nH]n2)c1`, the Potency is reported as inconclusive: 89.1 µM [inhibitor, partial curve, poor fit]. In the case of `COC(=O)CNC(=O)c1nc2cccnc2n(-c2ccccc2OC)c1=O`, the “outcome” value is reported as “inactive”. In the case of `COc1ccc(-c2cc(N3CCC(NC(=O)c4cccc(N(C)C)c4)C3)n[nH]2)cc1` (stereo not drawn), the Potency is reported as inconclusive: 50.1 µM [inhibitor, partial curve, poor fit]. With `O=C(Nc1ccc(F)cc1Cl)c1cc2n(n1)CC(c1ccc3c(c1)OCO3)OC2` (stereo not drawn) the Potency was inconclusive: 50.1 µM [inhibitor, partial curve, poor fit]. For `COCCNC(=O)c1cc(-c2ccccc2F)cc2c1OCCN2Cc1cccnc1`, the Potency was inconclusive: 112 µM [inhibitor, partial curve, poor fit]. With `CCOC(=O)[C@H]1C[C@]2(CCCCN(CCOC(C)=O)C2=O)N(C(=O)c2ccccc2)[C@H]1c1ccco1` the “activity change, negative = cytotoxicity” value was inactive: -9.92%. In the case of `Cc1ccc(NC(=O)N2CCCC2c2nncn2C2CCCC2)cc1F` (stereo not drawn), the “activity change, negative = cytotoxicity” value is reported as inactive: 1.28%. With `COc1ccc(-c2noc([C@@H]3CCCN3C(=O)COc3cccc(C)c3)n2)cc1` the Potency was inconclusive: 50.1 µM [inhibitor, partial curve, poor fit]. In the case of `COCCN1CCC2(CCC1=O)CCN(C(=O)Nc1cc(OC)ccc1OC)CC2`, the “outcome” value is reported as “inactive”. With `CNc1nc(C(=O)N2CCC3(CCCN(CCOC)C3=O)C2)cs1` (stereo not drawn) the “outcome” value was “inactive”. For `O=C(NCCOc1ccccc1)c1nc2c(o1)CCN(Cc1cc(F)ccc1F)CC2`, the Potency was inconclusive: 112 µM [inhibitor, partial curve, poor fit]. For `O=C(c1ccc(C(F)(F)F)cc1)N1CCCC(C(=O)N2CCC(c3ccccc3)CC2)C1` (stereo not drawn), the Potency was inconclusive: 56.2 µM [inhibitor, partial curve, poor fit]. With `Cc1noc2c(NCCc3ccccn3)cc(-c3cccnc3)nc12` the “activity change, negative = cytotoxicity” value was inactive: -13% [at 172 µM]. For `CCCN1CCC2(CCN([S+](=O)([O-])c3cccc(OC)c3)CC2)Oc2ccccc21`, the Potency was inconclusive: 28.2 µM [inhibitor, full curve]. For `O=C(c1ccccc1)N1CCN(Cc2ccccc2-c2cccnc2)CC1`, the Potency was inconclusive: 56.2 µM [inhibitor, partial curve, poor fit]. For `O=C(Nc1ccccc1)c1nc2c(o1)CCN(Cc1cccnc1)CC2`, the Potency was active: 79.4 µM. With `CN(C)c1cccc(-c2nc(N3CCOCC3)cc3c2CN(Cc2cnn(C)c2)C3=O)c1` the Potency was inconclusive: 112 µM [inhibitor, single point]. With `Cc1ccc(-c2cc(N3CCCN(C(=O)COc4ccc(F)cc4)CC3)n[nH]2)cc1C` the Potency was inconclusive: 44.7 µM [inhibitor, partial curve, poor fit]. For `Cc1cc(S(=O)(=O)N2CCCN(C)c3ccccc32)ccc1Cl`, the Potency was inconclusive: 56.2 µM [inhibitor, partial curve, poor fit]. With `O=C(CNC(=O)c1cccc(-c2ccc(C(F)(F)F)cc2)c1)NC1CCCC1` the Potency was inconclusive: 50.1 µM [inhibitor, partial curve, poor fit]. With `Cc1nc(CC2CCN(C(=O)c3cc4c(s3)CCC(C)C4)CC2)no1` (stereo not drawn) the Potency was inconclusive: 50.1 µM [inhibitor, partial curve, poor fit]. With `O=C(c1cccs1)N1CCCN(C(=O)C2CC2)c2ccccc21` the “activity change, negative = cytotoxicity” value was inactive: -2.54%. In the case of `CCOc1ccc(CC(=O)N2CCC(n3cc(-c4nc(C5CC5)no4)nn3)C2)cc1` (stereo not drawn), the Potency is reported as inconclusive: 70.8 µM [inhibitor, partial curve]. In the case of `COc1ccccc1C(=O)N1CCC(n2cc(-c3nc(C(C)C)no3)nn2)CC1`, the Potency is reported as inconclusive: 28.2 µM [inhibitor, full curve, poor fit]. For `CN(Cc1ccccc1)C(=O)[C@@H]1Cc2nc[nH]c2CN1C(=O)CC(C)(C)CC(=O)O`, the “activity change, negative = cytotoxicity” value was inactive: 0.74% [at 172 µM]. In the case of `COc1cc(OC)cc(C(=O)N2CCC(c3n[nH]c(=O)n3-c3ccc(C)cc3)CC2)c1`, the “activity change, negative = cytotoxicity” value is reported as inactive: 1.51%.
